# Laboratory results reported in PubChem BioAssay AID686979 (National Center for Advancing Translational Sciences (NCATS), 2013).
# Values joined by “and” are separate entries in the source; they are usually repeats but may differ in a detail not shown here. Equal values may be shown once. Among all 420,000 compounds or so, about 50,000 (12%) were called active. The shares of active, inactive and inconclusive entries below differ from those in the screen. Calls come from the whole dose curve; as a rule, active = well fitted inhibition curve with a large enough effect; inconclusive = small, poorly fitted or top-dose-only effect; inactive = flat fitted curve, though single readings scatter. No potency is given beside an inconclusive call; the fits are too rough.
# Assay: qHTS for Inhibitors of human tyrosyl-DNA phosphodiesterase 1 (TDP1): qHTS in cells in presence of CPT; note: nearly all actives have a fitted effect of over 55% in size
# Conditions: chicken DT40 Tdp1-/-;hTDP1 cells + 20 nM CPT, ATP luminescence, 48 h; activity change, negative = growth inhibition: at 46.2 µM (top of the series)
# Summary of the method: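 Chicken DT40 Tdp1-/- cells complemented with human TDP1, 400 cells/well, exposed to compounds plus 20 nM camptothecin for at least 48 h at 37 C; viability read as ATP content by CellTiter-Glo luminescence.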
# % is set by controls: 0 for no effect and ±100 for the full control effect; potency is the fitted concentration of half-maximal effect; tags give direction and shape of the fitted curve.
SMILES,Potency,"activity change, negative = growth inhibition"
O=C(NCc1ccccc1Cl)c1ccc2c(c1)N(Cc1ccccc1)CCS2,active: 13 µM,–
O=C(CSc1nc2ccccc2n1Cc1cccc(F)c1)N1CCN(c2ccc(F)cc2)CC1,"inconclusive [inhibitor, single point]",–
O=C(NC1CCCCCC1)c1ccc(CS(=O)c2cccc(Cl)c2)o1 (configuration not stated),"inconclusive [inhibitor, single point]",–
COc1ccc(C(CCN2CCOCC2)c2c(OC)cc(OC)c3c(C)cc(=O)oc23)cc1 (configuration not stated),active: 23.1 µM,–
COc1cccc(CNC(=O)C2CCC(CNc3nc(=S)[nH]c4ccccc34)CC2)c1 (configuration not stated),–,inconclusive: -31.2% [inhibitor]
COc1ccc(/C=C/C(=O)c2cc3cccc(OC)c3oc2=O)cc1,"inconclusive [inhibitor, single point]",–
CC(C=NNc1ccc([N+](=O)[O-])cn1)=Cc1ccccc1,"inconclusive [inhibitor, single point]",–
COCCn1c(SCC(=O)Nc2ccccc2OC)nc2c([nH]c3ccccc32)c1=O,"inconclusive [inhibitor, single point]",–
COc1ccc(NC(=O)CN2CCN(c3ccc(Cl)cc3)CC2)c(OC)c1,"inconclusive [inhibitor, single point]",–
O=C(N/N=C/c1cccs1)c1cccc2cc[nH]c12,"inconclusive [inhibitor, single point]",–
O=C(Nc1cccc2cccnc12)C1CCCC1,–,inactive: 2.41%
O=C(NCCCN1CCOCC1)c1cc(-c2ccc(F)cc2)on1,"inconclusive [inhibitor, partial curve]",–
COc1cccc(-c2cnc(C(O)c3ccc(-c4ccccc4)cc3)[nH]2)c1 (configuration not stated),"inconclusive [inhibitor, single point]",–
CCOC(=O)C1=CN(Cc2cccc(Br)c2)S(=O)(=O)N(C)C1C (configuration not stated),"inconclusive [inhibitor, single point]",–
O=C(COC(=O)C1CC(=O)N(Cc2ccccc2)C1)c1ccc(F)cc1 (configuration not stated),–,inactive: 2.09%
COc1cccc(C(=O)N(Cc2ccccc2)Cc2cc3cc4c(cc3[nH]c2=O)OCCO4)c1,active: 13 µM,–
CC1=Nc2nc(N3CCCCCC3)c(C#N)c3c4c(nc(c23)N1)N(c1ccc2ccccc2c1)C(=O)C4,"inconclusive [inhibitor, single point]",–
COc1cccc(N2CCN(S(=O)(=O)c3ccc4c(c3)N(C(C)=O)CCO4)CC2)c1,"inconclusive [inhibitor, partial curve, poor fit]",–
COC(=O)c1scc(C#N)c1N/N=C(\C#N)S(=O)(=O)c1ccc(Cl)cc1,active: 4.11 µM,–
Cc1nc(-c2ccc(C)c(S(=O)(=O)N3CCC(C(=O)NCc4ccc(F)cc4)CC3)c2)no1,active: 2.59 µM,–
Nc1n[nH]c2ccccc12,–,inactive: -6.95%
O=C(NNC(=O)C1CCN(Cc2ccc(Cl)c(Cl)c2)CC1)c1cccs1,–,inactive: -1.21%
COCCOC(=O)C1=C(C)N=c2s/c(=C\c3cccs3)c(=O)n2C1c1cccs1 (configuration not stated),"inconclusive [inhibitor, single point]",–

SMILES,Potency,"activity change, negative = growth inhibition"
CC(=O)c1cccc(NC(=S)NCCc2ccc(Cl)cc2)c1,"inconclusive [inhibitor, partial curve, poor fit]",–
COc1ccc(NC(C)=O)cc1S(=O)(=O)N(C)Cc1c(C)nn(-c2ccccc2)c1C,–,inactive: 6.15%
COc1ccc(N(CC(=O)NCc2ccc3c(c2)OCO3)S(=O)(=O)c2ccc(O)c(C(=O)O)c2)cc1,–,inactive: 1.25%
CCC(c1nnnn1-c1ccc2c(c1)OCCO2)N1CCN(c2ccc(C(F)(F)F)cc2[N+](=O)[O-])CC1 (configuration not stated),active: 14.6 µM,–
O=C(Nc1ccc(S(=O)(=O)NCc2ccccc2)cc1)C1CCCCC1,"inconclusive [inhibitor, single point]",–
NC(=O)/C=C\c1cn(-c2ccccc2)nc1-c1ccc2c(c1)OCCO2,"inconclusive [inhibitor, single point]",–
O=C(Nc1ccc2oc(-c3cccnc3)nc2c1)c1cc2ccccc2o1,"inconclusive [inhibitor, single point]",–
O=C(C[C@@H]1C/C=C\C[C@H](Cc2ccc(F)cc2)C(=O)OC[C@@H]2CCCN2C1=O)N[C@H](CO)Cc1ccccc1,active: 18.4 µM,–
Cc1ccc(C)c(CNC(=O)CN2C(=O)CSc3ccc(S(=O)(=O)N(C)C)cc32)c1,"inconclusive [inhibitor, partial curve, poor fit]",–
CCn1c(SCC(=O)Nc2ccc(C(C)=O)cc2)nc2ccccc21,"inconclusive [inhibitor, single point]",–
CCOC(=O)C(Oc1ccc2c(-c3ccccc3)cc(=O)oc2c1C)c1ccccc1 (configuration not stated),"inconclusive [inhibitor, single point]",–
C[C@@H]1[C@H](c2ccccc2)OCCS(=O)(=O)N1Cc1ccccc1F,"inconclusive [inhibitor, single point]",–
COc1ccc(CN2CC(=O)N3[C@H]4c5ccc(OC)cc5OC[C@@H]4[C@H](c4ccccc4)[C@]3(C)C2=O)cc1,"inconclusive [inhibitor, single point]",–
COc1ccc(OCC(=O)Nc2ccc3c(c2)nc(CCN2CCCC2)n3C)cc1,"inconclusive [inhibitor, single point]",–
Cn1cccc1C(=O)NC(=O)COC(=O)c1ccc(S(C)(=O)=O)c([N+](=O)[O-])c1,active: 2.31 µM and active: 3.98 µM,–
CCC(NC(=O)OCc1ccccc1)C(=O)Oc1ccc2ccc(=O)oc2c1 (configuration not stated),"inconclusive [inhibitor, single point]",–
Cc1nn(CC(O)c2ccccc2)c(C)c1Br (configuration not stated),–,inactive: 6.47%
O=C(O)CCCN1C(=O)C2C3CC(C2C1=O)C1C(c2ccccc2)c2sc(=O)[nH]c2SC31 (configuration not stated),"inconclusive [inhibitor, single point]",–
Cc1cc(C(=O)CCl)c(C)n1CCc1ccccc1,active: 3.26 µM,–
CCc1ccc(NC(=O)Cn2c(=O)n(CCc3ccccc3)c(=O)c3sc4ccccc4c32)cc1,"inconclusive [inhibitor, single point]",–
COc1ccc(S(=O)(=O)N2CCC(C(=O)NCCc3ccc4c(c3)OCO4)CC2)cc1,–,inactive: -25.2%
CC(=O)c1c(C)[nH]c(C(=O)OCC(=O)NCc2cccs2)c1C,"inconclusive [inhibitor, single point]",–
CSCc1c(C(=O)N2CCCc3ccccc32)oc2ccccc12,active: 14.6 µM,–

SMILES,Potency,"activity change, negative = growth inhibition"
COc1ccccc1N1CCN(S(=O)(=O)CCNC(=O)C(c2ccccc2)c2ccccc2)CC1,"inconclusive [inhibitor, single point]",–
Cc1ccc(C)c2[nH]c(=O)c(CN(CCN3CCCC3)C(=O)Nc3cccc(Cl)c3)cc12,active: 23.1 µM,–
O=C(NC(=S)N1CCOCC1)c1cn(-c2ccccc2)nc1-c1ccc(F)cc1,"inconclusive [inhibitor, single point]",–
CCc1cccc(CC)c1NC(=O)COn1nnc2ccc(C(F)(F)F)cc21,–,inactive: -18.1%
C=CCn1c(SCC(=O)Nc2ccccc2)nc2scc(-c3cccs3)c2c1=O,"inconclusive [inhibitor, single point]",–
COc1ccc(S(=O)(=O)N(CCc2ccccc2)CC(=O)Nc2cc(C)cc(C)c2)cc1OC,"inconclusive [inhibitor, single point]",–
O=C1OCC(O)=C1Cc1ccccc1,–,inactive: -23.7%
CCc1c(C(=O)NNC(=S)NCC2CCCO2)csc1C (configuration not stated),"inconclusive [inhibitor, single point]",–
Cn1c(=O)c2sccc2n2c(CCC(=O)Nc3ccc(F)cc3)nnc12,"inconclusive [inhibitor, single point]",–
COc1cccc(C(=O)c2sc(Nc3ccc(F)c(Cl)c3)nc2N)c1,–,inactive: 2.03%
C=CCn1c(COc2cccc(C)c2C)nnc1SCC(=O)N1CCN(c2ccccc2)CC1,"inconclusive [inhibitor, single point]",–
Cc1ccc(S(=O)(=O)N2C[C@H]3C(=O)C[C@@H](c4cccc(Cl)c4)N(S(=O)(=O)c4ccc(C)cc4)[C@H]3C[C@H]2c2ccc(Cl)cc2)cc1,–,inactive: -16.5%
Cc1ccc(N2C(=O)c3ccccc3C2Nc2cccnc2)nc1 (configuration not stated),active: 14.6 µM,–
O=C(NCC1(N2CCOCC2)CCCCC1)c1cccc(S(=O)(=O)Nc2ccc(F)cc2)c1,"inconclusive [inhibitor, single point]",–
CCOc1ccc(OCC)c(S(=O)(=O)N2CCC(C)CC2)c1,"inconclusive [inhibitor, single point]",–
Cc1sccc1/C=N/NC(=O)c1cccc2ccccc12,"inconclusive [inhibitor, partial curve]",–
CCC/C=C(\CCC)C(NS(=O)(=O)c1cccc2cccnc12)c1ccc(C(=O)OC)cc1 (configuration not stated),"inconclusive [inhibitor, single point]",–
CCN1CCCC1CNC(=O)c1ccc(N2CCCC2=O)cc1 (configuration not stated),–,inactive: 10.2%
O=C(NCc1ccc(Cl)cc1)C(=O)NCC1OCCCN1S(=O)(=O)c1cccs1 (configuration not stated),"inconclusive [inhibitor, single point]",–
Cc1ccc(C)c(NC(=O)CSc2nnc(C)n3c2cc2occc23)c1,–,inactive: -8.42%
COc1ccc(OC)c(-c2noc(N3CCN(c4cc(Cl)ccc4C)CC3)n2)c1,"inconclusive [inhibitor, single point]",–
